In the supplement of paper PMC12217912:
The list shows a part of the results. Sequences were assembled here from the parent chain. Values near 0.05 are background.

B1: TEV protease; numbered along this chain (parent)
chain: MGESLFKGPRDYNPISSSICHLTNESDGHTTSLYGIGFGPFIITNKHLFRRNNGTLVVQSLHGVFKVKDTTTLQQHLVDGRDMIIIRMPKDFPPFPQKLKFREPQREERICLVTTNFQTKSMSSMVSDTSCTFPSGDGIFWKHWIQTKDGQCGSPLVSTRDGFIVGIHSASNFTNTNNYFTSVPKNFMELLTNQEAQQWVSGWRLNADSVLWGGHKVFMVKPEEPFQPVKEATQL

Variants of: B1
Experiment: raw area under fraction-flipped curve 0-4 h after induction (AUC4h, not background-subtracted), DNA-recorder readout of cleavage of the substrate (dimensionless); higher = more cleavage of the substrate by the protease variant
Settings: temperature: 34 °C; time window: 0-4 h after rhamnose induction
Procedure: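 In vivo DNA recorder in E. coli TOP10(DE3) ΔrhaA at 34 °C. Each TEVp single-site mutant (parent TEVp 0) is paired with a single-site variant of the 7-mer TEVs (canonical ENLYFQ|S). The substrate sits between flexible linkers in a Bxb1-sfGFP-TEVs-SsrA fusion, so cleavage stabilises Bxb1 and speeds flipping of a recombination array, read by NGS. The value is the raw area under the fraction-flipped curve over 0-4 h after rhamnose induction (AUC4h), with ≥20 reads per time point. It is not background-subtracted; inactive controls average about 0.047.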
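Note: Bxb1 expression induced with 0.2% (w/v) L-rhamnose at OD600 near 0.5, cultures sampled hourly, flipped fraction per protease–substrate barcode pair counted by paired-end Illumina sequencing.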

Variant | area with substrate ENAYFQS | area with substrate ENCYFQS | area with substrate ENEYFQS | area with substrate ENGYFQS | area with substrate ENHYFQS | area with substrate ENIYFQS | area with substrate ENMYFQS | area with substrate ENNYFQS | area with substrate ENQYFQS | area with substrate ENRYFQS | area with substrate ENSYFQS | area with substrate ENTYFQS | area with substrate ENDYFQS | area with substrate ENFYFQS | area with substrate ENKYFQS | area with substrate ENVYFQS | area with substrate ENPYFQS | area with substrate ENWYFQS | area with substrate ENYYFQS
MGESLFKGPRDYNPISSSICHLTNESDGHTTSLYGIGFGPFIITNKHLFRRNNGTLVVQSLHGVFKVKDQTTLQQHLVDGRDMIIIRMPKDFPPFPQKLKFREPQREERICLVTTNFQTKSMSSMVSDTSCTFPSGDGIFWKHWIQTKDGQCGSPLVSTRDGFIVGIHSASNFTNTNNYFTSVPKNFMELLTNQEAQQWVSGWRLNADSVLWGGHKVFMVKPEEPFQPVKEATQL [T70Q] | 0.0443 | 0.0692 | 0.0394 | 0.0602 | 0.0689 | 0.0791 | 0.0737 | 0.0815 | 0.0555 | 0.0546 | 0.028 | 0.057 | – | – | – | – | – | – | –
MGESLFKGPRDYNPISSSICHLTNESDGHTTSLYGIGFGPFIITNKHLFRRNNGTLVVQSLHGVFKVKDGTTLQQHLVDGRDMIIIRMPKDFPPFPQKLKFREPQREERICLVTTNFQTKSMSSMVSDTSCTFPSGDGIFWKHWIQTKDGQCGSPLVSTRDGFIVGIHSASNFTNTNNYFTSVPKNFMELLTNQEAQQWVSGWRLNADSVLWGGHKVFMVKPEEPFQPVKEATQL [T70G] | 0.0651 | 0.0755 | – | 0.0457 | 0.0546 | – | – | 0.0629 | 0.0659 | – | – | – | 0.058 | 0.0903 | 0.0467 | 0.0661 | – | – | –
MGESLFKGPRDYNPISSSICHLTNESDGHTTSLYGIGFGPFIITNKHLFRRNNGTLVVQSLHGVFKVCDTTTLQQHLVDGRDMIIIRMPKDFPPFPQKLKFREPQREERICLVTTNFQTKSMSSMVSDTSCTFPSGDGIFWKHWIQTKDGQCGSPLVSTRDGFIVGIHSASNFTNTNNYFTSVPKNFMELLTNQEAQQWVSGWRLNADSVLWGGHKVFMVKPEEPFQPVKEATQL [K68C] | 0.0584 | 0.0702 | 0.0565 | 0.0497 | 0.0543 | – | 0.0494 | 0.073 | – | – | 0.0632 | – | 0.0605 | 0.0588 | 0.0709 | 0.0988 | 0.0559 | – | –
MGESLFKGPRDYNPISSSICHLTNESDGHTTSLYGIGFGPFIITNKHLFRRNNGTLVVQSLHGVFKVVDTTTLQQHLVDGRDMIIIRMPKDFPPFPQKLKFREPQREERICLVTTNFQTKSMSSMVSDTSCTFPSGDGIFWKHWIQTKDGQCGSPLVSTRDGFIVGIHSASNFTNTNNYFTSVPKNFMELLTNQEAQQWVSGWRLNADSVLWGGHKVFMVKPEEPFQPVKEATQL [K68V] | 0.0664 | 0.0609 | 0.068 | – | 0.0537 | 0.0999 | – | – | 0.0594 | 0.0451 | 0.0925 | 0.0693 | 0.0594 | 0.0657 | 0.081 | 0.0767 | 0.0606 | – | –
MGESLFKGPRDYNPISSSICHLTNESDGHTTSLYGIGFGPFIITNKHLFRRNNGTLVVQSLHGVFKVKDTTTLQQHEVDGRDMIIIRMPKDFPPFPQKLKFREPQREERICLVTTNFQTKSMSSMVSDTSCTFPSGDGIFWKHWIQTKDGQCGSPLVSTRDGFIVGIHSASNFTNTNNYFTSVPKNFMELLTNQEAQQWVSGWRLNADSVLWGGHKVFMVKPEEPFQPVKEATQL [L77E] | 0.081 | 0.0611 | 0.0707 | 0.0583 | 0.0485 | 0.0716 | – | 0.0484 | 0.063 | 0.0606 | 0.0655 | 0.0612 | 0.0635 | 0.0623 | – | 0.0543 | – | – | –
MGESLFKGPRDYNPISSSICHLTNESDGHTTSLYGIGFGPFIITNKHLFRRNNGTLVVQSLHGVFKVKDTTTLQQHWVDGRDMIIIRMPKDFPPFPQKLKFREPQREERICLVTTNFQTKSMSSMVSDTSCTFPSGDGIFWKHWIQTKDGQCGSPLVSTRDGFIVGIHSASNFTNTNNYFTSVPKNFMELLTNQEAQQWVSGWRLNADSVLWGGHKVFMVKPEEPFQPVKEATQL [L77W] | 0.0525 | 0.0774 | – | – | – | – | – | – | 0.0734 | – | – | – | 0.0483 | 0.031 | 0.0498 | 0.0535 | 0.0422 | – | –
MGESLFKGPRDYNPISSSICHLTNESDGHTTSLYGIGFGPFIITNKHLFRRNNGTLVVQSLHGVFKVKDTTTLQQHLVHGRDMIIIRMPKDFPPFPQKLKFREPQREERICLVTTNFQTKSMSSMVSDTSCTFPSGDGIFWKHWIQTKDGQCGSPLVSTRDGFIVGIHSASNFTNTNNYFTSVPKNFMELLTNQEAQQWVSGWRLNADSVLWGGHKVFMVKPEEPFQPVKEATQL [D79H] | 0.0576 | – | – | – | 0.0834 | – | 0.0543 | 0.0502 | 0.0658 | – | – | – | 0.0585 | – | 0.0302 | 0.0751 | 0.0635 | – | –
MGESLFKGPRDYNPISSSICHLTNESDGHTTSLYGIGFGPFIITNKHLFRRNNGTLVVQSLHGVFKVKDTTTLQQHLVAGRDMIIIRMPKDFPPFPQKLKFREPQREERICLVTTNFQTKSMSSMVSDTSCTFPSGDGIFWKHWIQTKDGQCGSPLVSTRDGFIVGIHSASNFTNTNNYFTSVPKNFMELLTNQEAQQWVSGWRLNADSVLWGGHKVFMVKPEEPFQPVKEATQL [D79A] | 0.0833 | 0.0669 | – | – | 0.0504 | – | 0.0867 | – | – | 0.0559 | – | – | 0.0648 | 0.0695 | – | – | 0.0432 | 0.06 | 0.0578
MGESLFKGPRDYNPISSSICHLTNESDGHTTSLYGIGFGPFIITNKHLFRRNNGTLVVQSEHGVFKVKDTTTLQQHLVDGRDMIIIRMPKDFPPFPQKLKFREPQREERICLVTTNFQTKSMSSMVSDTSCTFPSGDGIFWKHWIQTKDGQCGSPLVSTRDGFIVGIHSASNFTNTNNYFTSVPKNFMELLTNQEAQQWVSGWRLNADSVLWGGHKVFMVKPEEPFQPVKEATQL [L61E] | 0.0704 | – | 0.0617 | – | – | 0.121 | 0.0812 | 0.0641 | 0.0558 | 0.0511 | 0.0614 | 0.0603 | 0.0513 | 0.0638 | 0.0743 | – | 0.0748 | – | –
MGESLFKGPRDYNPISSSICHLTNESDGHTTSLYGIGFGPFIITNKHLFRRNNGTLVVQSLHGVFKVKDTTTLCQHLVDGRDMIIIRMPKDFPPFPQKLKFREPQREERICLVTTNFQTKSMSSMVSDTSCTFPSGDGIFWKHWIQTKDGQCGSPLVSTRDGFIVGIHSASNFTNTNNYFTSVPKNFMELLTNQEAQQWVSGWRLNADSVLWGGHKVFMVKPEEPFQPVKEATQL [Q74C] | 0.0509 | – | 0.0548 | 0.0599 | 0.0471 | – | – | 0.0642 | 0.058 | 0.0361 | 0.0564 | 0.0717 | 0.0635 | 0.0717 | 0.0591 | 0.0791 | – | – | –
